# Test results: PubChem BioAssay AID504832 (National Center for Advancing Translational Sciences (NCATS), 2011)
# Screen size: about 310,000 compounds; about 18,000 (5.8%) were called active. The inconclusive results got no clear call from the source; some entries with a clear call stand among them for comparison. Calls come from the whole dose curve; as a rule, active = well fitted inhibition curve with a large enough effect; inconclusive = small, poorly fitted or top-dose-only effect, or another doubt; inactive = no such curve, though single readings can be large or run the other way. No potency is given beside an inconclusive call; the fits are too rough.
# Assay: Primary qHTS for delayed death inhibitors of the malarial parasite plastid, 48 hour incubation
# Conditions: P. falciparum luciferase growth in erythrocytes; series mostly up to 28.7 µM; activity change, negative = inhibition: at the top concentration
# Procedure, shortened: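 First compound was added to culture medium, then infected red cells at 0.1% parasitemia and 2% hematocrit (final). After incubation at 37 C under 5% CO2, luciferase detection reagent was dispensed and light output recorded.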
# % is set by controls: 0 for no effect and ±100 for the full control effect; potency is the fitted concentration of half-maximal effect; tags give direction and shape of the fitted curve.
SMILES,Potency,"activity change, negative = inhibition"
CC(=O)N1c2ccc(S(=O)(=O)NCC3CCC(C(=O)Nc4cccc(C)n4)CC3)cc2CC1C (stereo not drawn),"inconclusive [inhibitor, partial curve, poor fit]",–
CCOC(=O)/C(=N\Nc1ccccc1Cl)N1CC(C)OC(C)C1 (stereo not drawn),"inconclusive [inhibitor, single point]",–
O=C(C(Sc1ccccc1)c1ccccc1)N1CCOCC1 (stereo not drawn),–,inactive: 7.2%
Cc1ccc2c(c1)-c1c(ssc1=S)C(C)(C)N2C(=O)CSC1=NCCS1,"inconclusive [inhibitor, single point]",–
CC(CC(=O)Nc1cccc(S(=O)(=O)N2CCCCC2)c1)c1ccccc1 (stereo not drawn),"inconclusive [inhibitor, single point]",–
Cc1ccc2[nH]c(=O)c(CN(CC3CCCO3)C(=S)Nc3ccccc3)cc2c1 (stereo not drawn),"inconclusive [inhibitor, single point]",–
O=C(COc1ccccc1)NCC(c1ccco1)N1CCN(c2ccccc2F)CC1 (stereo not drawn),"inconclusive [inhibitor, single point]",–
N#CCC(=O)Nc1ccc(C(=O)N2CCN(S(=O)(=O)c3ccc4ccccc4c3)CC2)cc1,active: 14.7 µM,–
O=C(Nc1ccncc1)c1cccc(S(=O)(=O)N2CCCC2)c1,–,inactive: 9.87%
O=C(NCCC(=O)N(Cc1ccco1)Cc1cccs1)c1ccc(Br)cc1,"inconclusive [inhibitor, single point]",–
COc1ccc(C(=O)N2c3ccc(F)cc3CCC2C)cc1OC (stereo not drawn),"inconclusive [inhibitor, partial curve, poor fit]",–
CCOC(=O)C1=C(C)N=C2SC(C(=O)OC)=CC(=O)N2C1c1ccc(F)cc1 (stereo not drawn),"inconclusive [inhibitor, single point]",–
CCC(C)c1ccc(OCC(=O)Nc2ccc3c(c2)C(=O)NC3=O)cc1 (stereo not drawn),–,inactive: 1.01%
CCCn1c(NCc2cc(OC)ccc2OC)nc2ccccc21,"inconclusive [inhibitor, single point]",–
COC(=O)c1ccc(C)c(NC(=O)CN2C(=O)c3ccccc3S2(=O)=O)c1,–,inactive: -13.6%
COC(=O)C1=C(C)NC(=O)NC1c1ccc2ccccc2c1 (stereo not drawn),"inconclusive [inhibitor, partial curve, poor fit]",–
CN(C)C(=S)c1ccccc1,–,inactive: 84.6%
O=C(c1ccc(NS(=O)(=O)c2ccccc2)cc1)N1CCN(Cc2ccc3c(c2)OCO3)CC1,"inconclusive [inhibitor, partial curve]",–
Cc1cc(NC(=O)c2ccccc2)ccc1NC(=O)c1ccccc1Cl,–,inactive: 0.884%
O=C1CCCN1c1ccc(Br)cc1,–,inactive: 26.5%
O=C(c1ccco1)N1N=C(c2ccccc2)CC1c1ccc2nccnc2c1 (stereo not drawn),"inconclusive [inhibitor, partial curve, poor fit]",–
COc1ccc(O)c(CNc2ccccc2F)c1,–,inactive: 15.1%
O=C(N/N=C\c1cccc(F)c1)c1ccc(-c2ccccc2)cc1,–,inactive: 7.96%

SMILES,Potency,"activity change, negative = inhibition"
CN(C)S(=O)(=O)Oc1ccsc1C(=O)Nc1ccc(Cl)cc1,–,inactive: -9.45%
[N-]=[N+]=CC(=O)C(c1ccccc1)(c1ccccc1)c1ccccc1,"inconclusive [inhibitor, partial curve]",–
CC(=O)Nc1ccc(C2=CC(=O)C[C@H](c3ccc4c(c3)OCO4)C2)cc1,"inconclusive [inhibitor, single point]",–
O=C(CN1CCN(c2ncccn2)CC1)NCCC1=CCCCC1,–,inactive: -13.8%
Cn1c2c(c(=O)n(C)c1=O)C(c1cc3c(cc1Br)OCO3)CC(=O)N2 (stereo not drawn),–,inactive: 21.3%
CCC(=O)N1CCCC(C(=O)c2ccc(-c3ccccc3)cc2)C1 (stereo not drawn),–,inactive: 17.8%
CN(C)c1cc(N/N=C\c2ccccc2)nc(N(C)C)n1,"inconclusive [inhibitor, partial curve, poor fit]",–
O=C(Nc1cccc(-n2cnnn2)c1)C1CCCN(Cc2cccc(C(F)(F)F)c2)C1 (stereo not drawn),active: 14.7 µM,–
CC(C)N(Cc1cn(C)nc1-c1cccc(Cl)c1)Cc1nccn1C,"inconclusive [inhibitor, partial curve, poor fit]",–
Cc1ccc(S(=O)(=O)N2[C@@H](c3ccccc3)C(C(=O)O)=CC[C@H]2c2cccs2)cc1,"inconclusive [inhibitor, partial curve, poor fit]",–
COc1ccccc1-n1cnc2cc(NCc3ccco3)ccc21,"inconclusive [inhibitor, single point]",–
CS(=O)(=O)c1ccc(Cl)c(NC(=O)COC(=O)C23CC4CC(CC(C4)C2)C3)c1,active: 5.22 µM,–
Nc1nc2cc(S(=O)(=O)NC3=NCCCCC3)ccc2s1,"inconclusive [inhibitor, single point]",–
O=C(c1ccccc1)N1CN2CN(C(=O)c3ccccc3)CC([N+](=O)[O-])(C2)C1,"inconclusive [inhibitor, partial curve, poor fit]",–
CCCC(C)NC(=O)c1ccc(C2SCC(=O)N2Cc2ccco2)cc1 (stereo not drawn),"inconclusive [inhibitor, partial curve]",–
CC(C)[C@@H](C(=O)NC1CC1)N1C(=O)N2CCc3c([nH]c4ccccc34)[C@@]2(C)C1=O,"inconclusive [inhibitor, single point]",–
Cc1cccc(N2CCN(C(=O)c3ccc(NC4=NC5CS(=O)(=O)CC5S4)cc3)CC2C)c1 (stereo not drawn),"inconclusive [inhibitor, single point]",–
CN(CC(=O)Nc1cccc(F)c1)C(=O)c1cccc(S(=O)(=O)N2CC3(C)CC2CC(C)(C)C3)c1 (stereo not drawn),"inconclusive [inhibitor, single point]",–
O=C(NNC(=O)c1cc(-c2ccco2)nc2ccccc12)c1ccccc1,"inconclusive [inhibitor, partial curve, poor fit]",–
O=C(CCCN1CCN(c2ccccn2)CC1)c1ccc(F)cc1,"inconclusive [inhibitor, partial curve, poor fit]",–
CC(C)(C)NC(=O)NC(=O)COC(=O)C1CCN(S(=O)(=O)c2cccs2)CC1,–,inactive: 9.94%
Cc1ccc(S(=O)(=O)N2CCCCC2c2cccnc2)c(C)c1C (stereo not drawn),"inconclusive [inhibitor, partial curve, poor fit]",–
O=c1[nH][nH]cc1C=Nc1cc(Cl)ccc1O,"inconclusive [inhibitor, partial curve, poor fit]",–

SMILES,Potency,"activity change, negative = inhibition"
O=C(Nc1nc2ccccc2[nH]1)c1ccc(F)c(S(=O)(=O)N2CCOCC2)c1,–,inactive: 71.5%
COCc1c(C#N)c(NCCc2ccccc2)nc(C)c1[N+](=O)[O-],"inconclusive [inhibitor, single point]",–
COc1ccc(C2CC(O)(c3ccccc3)Oc3cc(OC)cc(OC)c32)cc1 (stereo not drawn),"inconclusive [inhibitor, single point]",–
O=C(Nc1ccnn1C1CCN(C/C=C/c2ccccc2)CC1)c1ccccc1,"inconclusive [inhibitor, single point]",–
O=C(C1COc2ccccc2O1)N1CCOCC1 (stereo not drawn),–,inactive: 26.2%
C=CCOC(=O)C1=C[C@H](c2csc3ccccc23)[C@@H](CCCO)[C@H](OCC)O1,"inconclusive [inhibitor, full curve, poor fit]",–
O=C(NCCC1CCCCN1S(=O)(=O)c1ccc(Cl)cc1)C(=O)NCc1cccnc1 (stereo not drawn),"inconclusive [inhibitor, partial curve]",–
CCn1c(SCC(=O)Nc2ccccc2C)nc2nc3c(cc2c1=O)COC(C)(C)C3,"inconclusive [inhibitor, partial curve, poor fit]",–
COc1cc(-c2nnc(SCc3ccccc3Cl)o2)cc(OC)c1OC,"inconclusive [inhibitor, single point]",–
CN1C(=O)C2(c3ccccc31)N(C)CC(c1ccccc1)C21SC(=S)N(Cc2ccco2)C1=O (stereo not drawn),active: 1.31 µM,–
CCOC(=O)C1(CCc2ccccc2)CCN(Cc2ccco2)CC1,"inconclusive [inhibitor, single point]",–
CCOc1ccc(NC(=O)CCCCn2c(=O)[nH]c3ccsc3c2=O)cc1,"inconclusive [inhibitor, partial curve, poor fit]",–
Cc1ccc2cc(C#N)c(SCc3nnc(-c4ccccc4[N+](=O)[O-])o3)nc2c1,–,inactive: 10.9%
O=C(Nc1cc(Sc2ccccn2)cc([N+](=O)[O-])c1)c1cccc(F)c1,"inconclusive [inhibitor, single point]",–
CCc1cc(C(c2ccc(F)cc2)N2CCOCC2)c(NC(=O)c2ccccc2)s1 (stereo not drawn),"inconclusive [inhibitor, full curve]",–
CCCCc1cc(=O)oc2c3c(cc(OCC(=O)NCCCO)c12)OC(C)(C)CC3,"inconclusive [inhibitor, single point]",–
CSc1nnc(-c2sccc2-n2cccc2)o1,"inconclusive [inhibitor, partial curve, poor fit]",–
Cc1c(C)c(C)c(S(=O)(=O)NCCC(=O)N2CCN(Cc3ccc(C#N)cc3)CC2)c(C)c1C,–,inactive: -1.47%
CCn1c(SCC(=O)Nc2nnc(C)s2)nc2c(c1=O)SC(C)C2 (stereo not drawn),"inconclusive [inhibitor, partial curve, poor fit]",–
COc1ccc(-c2nnc(SCc3ccccn3)n2C)cc1,–,inactive: 85.2%
Cc1ccc(S(=O)(=O)CC(=O)N(C)C)cc1,–,inactive: -14.5%
O=C(COc1ccccc1)N1CCN(CC2CC=CCC2)CC1 (stereo not drawn),"inconclusive [inhibitor, partial curve, poor fit]",–
